Data reported in the supplement of paper PMC4604168 (melanoma cell lines).
This is one part of the list. Most values come without repeats; read them as rough.

test system: SkMel5; test: cell count relative to DMSO control; melanoma cells; higher = more viable cells; details: library dose: standard library concentration; 72 h
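Further: cells treated in 1,536-well plates, then fixed and DAPI-stained, with nuclei counted from automated high-throughput microscope images.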

Compound	cell count [%]
NC(=O)c1ccc(N(C(N)=O)c2c(F)cccc2F)nc1-c1ccc(F)cc1F + COc1cc2ncnc(Nc3ccc(Oc4ccccc4)cc3)c2cc1OC [SrcI1] (first compound 2 µM, partner dose 10 µM)	61.9
CCCCCCCCc1ccc(CCC(N)(CO)CO)cc1 [fingolimod] + Oc1cc(-c2nc(-c3ccccc3)[nH]c2-c2ccncc2)ccc1Cl [L779450] (first compound 10 µM, partner dose 1 µM)	35.5
NC(=O)c1ccc(N(C(N)=O)c2c(F)cccc2F)nc1-c1ccc(F)cc1F + Oc1cc(-c2nc(-c3ccccc3)[nH]c2-c2ccncc2)ccc1Cl [L779450] (first compound 2 µM, partner dose 1 µM)	70.3
COc1cc2c(Oc3ccc4[nH]c(C)cc4c3F)ncnc2cc1OCCCN1CCCC1 [cediranib] + COC(=O)c1sccc1S(=O)(=O)Nc1ccc(Nc2ccccc2)cc1OC [GSK0660] (first compound 2 µM, partner dose 5 µM)	74.1
NC(=O)c1ccc(N(C(N)=O)c2c(F)cccc2F)nc1-c1ccc(F)cc1F + Cc1cc([N+](=O)[O-])ccc1NS(=O)(=O)c1cc(Cl)ccc1Cl [FH535] (first compound 2 µM, partner dose 5 µM)	70.1
Cc1ccc(NC(=O)c2cccc(N(C)C)c2)cc1NC(=O)c1ccc(O)cc1 + N#Cc1c(O)c2c(-c3ccc(-c4ccccc4O)cc3)csc2[nH]c1=O [A769662] (first compound 10 µM, partner dose 10 µM)	112
NC(=O)c1ccc(N(C(N)=O)c2c(F)cccc2F)nc1-c1ccc(F)cc1F + COc1cc(N2CCC(N3CCN(C)CC3)CC2)ccc1Nc1ncc(Cl)c(Nc2ccccc2S(=O)(=O)C(C)C)n1 [NVP-TAE684] (first compound 2 µM, partner dose 0.4 µM)	62.5
CCc1ccc(CCOc2ccc(CC3SC(=O)NC3=O)cc2)nc1 (configuration not stated) [pioglitazone] + COc1ccc2c(c1)CCC1C2CCC2(C)C(NCCCCCCN3C(=O)C=CC3=O)CCC12 [U73122] (first compound 10 µM, partner dose 2 µM)	90.7
NC(=O)c1ccc(N(C(N)=O)c2c(F)cccc2F)nc1-c1ccc(F)cc1F + COc1ccc2c(c1)CCC1C2CCC2(C)C(NCCCCCCN3C(=O)C=CC3=O)CCC12 [U73122] (first compound 2 µM, partner dose 2 µM)	84.7
NC(=O)c1ccc(N(C(N)=O)c2c(F)cccc2F)nc1-c1ccc(F)cc1F + O=S(=O)(c1ccccc1)N(CC(F)(F)F)c1ccc(C(O)(C(F)(F)F)C(F)(F)F)cc1 [T0901317] (first compound 2 µM, partner dose 7 µM)	70.9
CCCCCCCCc1ccc(CCC(N)(CO)CO)cc1 [fingolimod] + Cc1cc([N+](=O)[O-])ccc1NS(=O)(=O)c1cc(Cl)ccc1Cl [FH535] (first compound 10 µM, partner dose 5 µM)	63.4
CCCCCCCCc1ccc(CCC(N)(CO)CO)cc1 [fingolimod] + COc1ccc2c(c1)CCC1C2CCC2(C)C(NCCCCCCN3C(=O)C=CC3=O)CCC12 [U73122] (first compound 10 µM, partner dose 2 µM)	49.3
NC(=O)c1ccc(N(C(N)=O)c2c(F)cccc2F)nc1-c1ccc(F)cc1F + COC(=O)c1sccc1S(=O)(=O)Nc1ccc(Nc2ccccc2)cc1OC [GSK0660] (first compound 2 µM, partner dose 5 µM)	75.7
CCCCCCCCc1ccc(CCC(N)(CO)CO)cc1 [fingolimod] + Cc1cc(Nc2cc(N3CCN(C)CC3)nc(/C=C/c3ccccc3)n2)n[nH]1 [ENMD2076] (first compound 10 µM, partner dose 0.2 µM)	68.5
NC(=O)c1ccc(N(C(N)=O)c2c(F)cccc2F)nc1-c1ccc(F)cc1F + COc1ccc(-c2ccc3c(N4CCOCC4)nc(N4C[C@@H](C)O[C@@H](C)C4)nc3n2)cc1CO [KU0063794] (first compound 2 µM, partner dose 0.1 µM)	75.4
CCCCCCCCc1ccc(CCC(N)(CO)CO)cc1 [fingolimod] + O=S(=O)(c1ccccc1)N(CC(F)(F)F)c1ccc(C(O)(C(F)(F)F)C(F)(F)F)cc1 [T0901317] (first compound 10 µM, partner dose 7 µM)	43.8
CCCCCCCCc1ccc(CCC(N)(CO)CO)cc1 [fingolimod] + c1cc(-c2cnn3cc(-c4ccc(OCCN5CCCCC5)cc4)cnc23)ccn1 [Dorsomorphin] (first compound 10 µM, partner dose 2 µM)	29.7
CC(C)(C)c1cnc(CSc2cnc(NC(=O)C3CCNCC3)s2)o1 + NCC(=O)Nc1ccc(-n2nc(C(F)(F)F)cc2-c2ccc3c(ccc4ccccc43)c2)cc1 [OSU03012] (first compound 0.05 µM, partner dose 5 µM)	45.7
NC(=O)c1ccc(N(C(N)=O)c2c(F)cccc2F)nc1-c1ccc(F)cc1F + O=C(Nc1ccccc1)c1cc([N+](=O)[O-])ccc1Cl [GW9662] (first compound 2 µM, partner dose 10 µM)	65.5
CCCCCCCCc1ccc(CCC(N)(CO)CO)cc1 [fingolimod] + N#Cc1c(O)c2c(-c3ccc(-c4ccccc4O)cc3)csc2[nH]c1=O [A769662] (first compound 10 µM, partner dose 10 µM)	50.8
CCCCCCCCc1ccc(CCC(N)(CO)CO)cc1 [fingolimod] + CC(C)CCN1c2nc(Nc3cc(F)c(O)c(F)c3)ncc2N(C)C(=O)C1C [BID1870] (first compound 10 µM, partner dose 1 µM)	55.6
NC(=O)c1ccc(N(C(N)=O)c2c(F)cccc2F)nc1-c1ccc(F)cc1F + N#Cc1c(O)c2c(-c3ccc(-c4ccccc4O)cc3)csc2[nH]c1=O [A769662] (first compound 2 µM, partner dose 10 µM)	66.3
CCCCCCCCc1ccc(CCC(N)(CO)CO)cc1 [fingolimod] + O=C(O)c1ccc(-c2c[nH]c3ncc(-c4ccccc4)cc23)cc1C1CCCC1 [GSK650394] (first compound 10 µM, partner dose 0.8 µM)	45.4
CCCCCCCCc1ccc(CCC(N)(CO)CO)cc1 [fingolimod] + CCN(CC)CCCCNc1ncc2cc(-c3cc(OC)cc(OC)c3)c(NC(=O)NC(C)(C)C)nc2n1 [PD173074] (first compound 10 µM, partner dose 0.5 µM)	98.3
NC(=O)c1ccc(N(C(N)=O)c2c(F)cccc2F)nc1-c1ccc(F)cc1F + CCCCCCCCCCCC1=C(O)C(=O)C=C(O)C1=O [Embelin] (first compound 2 µM, partner dose 6 µM)	79
CCCCCCCCc1ccc(CCC(N)(CO)CO)cc1 [fingolimod] + O=C(Nc1ccccc1)c1cc([N+](=O)[O-])ccc1Cl [GW9662] (first compound 10 µM, partner dose 10 µM)	41.5
NC(=O)c1ccc(N(C(N)=O)c2c(F)cccc2F)nc1-c1ccc(F)cc1F + Cn1cc(/C=C2\C(=O)Nc3cccnc32)c2ccccc21 [GW441756] (first compound 2 µM, partner dose 2 µM)	62.7
